Reference: PubChem BioAssay AID463173 (ICCB-Longwood Screening Facility, Harvard Medical School, 2010)
The whole screen tested about 52,000 compounds, of which about 4,300 (8.3%) were called active. Cut-off read from the data, not from the text of the source: active = survival mostly below about 52% (no sharp cut-off); inactive = mostly above about 56%. The list shows a part of the results.

These molecules were tested on DeltatarO mutant (assay: S. aureus survival, RN4220 and DeltatarO strains – OD600, teichoic acid synthesis inhibitors, primary screen (AID 463173)). Conditions: S. aureus RN4220 wild type/DeltatarO growth, OD600, 18 h, stronger effect = lower value, screened at 18.75 µg/mL (by protocol).

Row | Structure (SMILES) | survival
1 | CCC1CN(C(=O)NCc2ccccc2)c2cc(Cl)ccc2O1 (stereo not given) | active: 46%
2 | O=C(Nc1cccc(OCc2cc(=O)n3ccccc3n2)c1)c1ccccc1Br | inactive: 88%
3 | COc1ccc(S(=O)(=O)NCCc2nnc3ccc(SCC(=O)Nc4cc(C)cc(C)c4)nn23)cc1 | active: 63%
4 | COC(=O)CN1C(=O)CSc2ccc(S(=O)(=O)Nc3cccc(C)c3)cc21 | inactive: 101%
5 | COCCn1nnnc1C(c1ccncc1)N1CCCC1 (stereo not given) | inactive: 80%
6 | Cc1cccc(C(=O)Nc2nc3nc(-c4ccccc4)cc(=O)n3[nH]2)c1 | inactive: 73%
7 | CCSc1ncc(Cl)c(C(=O)Nc2ccc(S(=O)(=O)Nc3ncccn3)cc2)n1 | inactive: 81%
8 | CC(C)(C)CC(=O)Nc1nnc(-c2ccccc2)s1 | inactive: 86%
9 | COc1cccc(CNC(=O)CCCn2ncn3c(cc4occc43)c2=O)c1OC | inactive: 119%
10 | CCCc1nnc(NC(=O)C(CC)Sc2nnc3c4ccccc4n(C)c3n2)s1 (stereo not given) | inactive: 61%
11 | COc1ccc(CNC(=O)c2sc3nc4n(c(=O)c3c2C)CCC4)cc1 | inactive: 82%
12 | COc1ccc(-n2ccn(CC(=O)Nc3ccc(C)cc3C)c(=O)c2=O)cc1 | inactive: 79%
13 | COc1ccc2c(c1)c1c(c(=O)n(-c3cccc(C)c3)c(=O)n1CC(=O)NCc1ccc(C)cc1)n2C | inactive: 87%
14 | COc1ccc(-c2cc(C(=O)NCCc3ccccc3)c3c(-c4ccc(Cl)cc4)[nH]nc3n2)cc1 | inactive: 93%
15 | COc1ccc(CCNC(=O)CS(=O)(=O)Cc2nc(-c3cccc(Cl)c3)oc2C)cc1OC | inactive: 64%
16 | CC(C)c1ccccc1NC(=O)Cn1cnc2c1c(=O)n(C)c(=O)n2C | inactive: 87%
17 | COc1ccc(CNC(=O)c2cccn2-c2nnc(N3CCCCC3)s2)c(OC)c1 | active: 0%
18 | O=C(NCc1cccnc1)c1c(O)c2cccc3c2n(c1=O)CC3 | inactive: 84%
19 | O=C(Cn1c(=O)n(Cc2ccc(C(=O)NCc3ccc4c(c3)OCO4)cc2)c(=O)c2ccccc21)Nc1ccccc1F | inactive: 80%
20 | O=C(CCS(=O)(=O)c1cc(Br)cc2c1N(C(=O)C1CC1)CC2)N1CCN(c2cccc(C(F)(F)F)c2)CC1 | inactive: 59%

Row | Structure (SMILES) | survival
21 | Cc1ccc(CSc2nc3ccncc3n2Cc2nc(-c3ccccc3C)oc2C)cc1 | active: -4%
22 | Cc1cccc(N2C(=O)N(Cc3cccc(C#N)c3)c3ccccc3S2(=O)=O)c1 | inactive: 88%
23 | CCCNC(=O)c1c(NC(=O)c2ccccc2)sc2c1CCC(C(C)(C)C)C2 (stereo not given) | active: 9%
24 | Cc1cccc(CCNC(=O)CCS(=O)(=O)c2cc3c(cc2C)NC(=O)CO3)c1 | inactive: 95%
25 | CCc1nnc2c(Nc3ccccc3Br)nc3ccccc3n12 | inactive: 93%
26 | Cn1cnc(S(=O)(=O)N2CCC(C(=O)Nc3ccc(Cl)c(C(F)(F)F)c3)CC2)c1 | inactive: 83%
27 | Cc1nn(-c2ccccc2)c2sc(C(=O)N(CC(=O)NC3CCCC3)C3CC3)cc12 | inactive: 78%
28 | CCOC(=O)N1CCC2(CC1)OC(=O)C(C)=C2C(=O)NCc1ccccc1OC | inactive: 79%
29 | COc1ccccc1N1CCN(C(=O)CNS(=O)(=O)c2ccc(Br)s2)CC1 | inactive: 116%
30 | CCc1cccc(NS(=O)(=O)c2ccc3c(c2)N(CC(=O)OC)C(=O)CS3)c1 | inactive: 92%
31 | Cc1ccc(OCC(=O)Nc2ccc3nn(-c4ccc(C)cc4)nc3c2)cc1 | inactive: 55%
32 | COC(=O)c1cc(C)nc2c1c(=O)nc(SCc1ccccc1Cl)n2C1CC1 | inactive: 71%
33 | CCN1CCN(C(c2ccc(F)cc2)c2sc3nc(-c4ccco4)nn3c2O)CC1 (stereo not given) | inactive: 135%
34 | Cc1ccc(S(=O)(=O)CCC(=O)N2CCN(c3nc4c(C)c(C)ccc4s3)CC2)cc1 | inactive: 92%
35 | COc1ccc(N2CCN(C(c3ccc(F)cc3)c3sc4nc(-c5ccco5)nn4c3O)CC2)cc1 (stereo not given) | inactive: 93%
36 | CCc1cc(=O)[nH]c(SCc2nc(-c3ccc(C(F)(F)F)cc3)no2)n1 | active: 32%
37 | CC(=O)N1CCCC1c1nc2ccccc2n1Cc1ccccc1F (stereo not given) | inactive: 61%
38 | CCC(C)NC(=O)c1cnn(-c2cccc(F)c2)c1-n1cccc1 (stereo not given) | inactive: 103%
39 | Cc1cccc(C(C)C)c1NC(=O)c1ccc2c(c1)CCCN2S(C)(=O)=O | inactive: 90%
40 | Cc1cc(Cl)ccc1OCC(=O)N(Cc1ccc(N(C)C)cc1)C1CCS(=O)(=O)C1 (stereo not given) | active: 39%
